The campaign covered roughly 310,000 compounds. About 18,000 (5.8%) were called active. Inconclusive means that the source gave no clear call. Such entries were picked first, then a sample of the others. The call rests on the fitted dose curve; in most records, active means well fitted inhibition curve with a large enough effect; inconclusive means small, poorly fitted or top-dose-only effect, or another doubt; inactive means no such curve, though single readings can be large or run the other way. No potency is given beside an inconclusive call; the fits are too rough.
Test: Primary qHTS for delayed death inhibitors of the malarial parasite plastid, 48 hour incubation
Conditions: P. falciparum luciferase growth in erythrocytes; series mostly up to 28.7 µM; activity change, negative = inhibition: at the top concentration
In short: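 In quantitative HTS format, infected erythrocytes bearing luciferase-reporter parasites were treated for a single generation at 37 C. Luminescence after adding detection reagent served as the growth measure.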
On the % scale 0 is the no-effect control and ±100 the full control effect; potency means the concentration at half of the fitted maximal effect; tags describe the fitted curve by direction and shape.

Structure (SMILES)	activity change, negative = inhibition	Potency
CN(CC(=O)Nc1cccc(F)c1)C(=O)c1cccc(N2C(=O)CCC2=O)c1	inactive: -17%	–
Cc1ccc(C)c(C2=NNC(=NCc3ccccc3)SC2)c1	–	inconclusive [inhibitor, full curve, poor fit]
CCOc1ccccc1CN1CCNC(=O)C1CC(=O)NCCC1=CCCCC1 (stereo unspecified)	–	inconclusive [inhibitor, partial curve, poor fit]
COc1ccc(C2(CNC(=O)C(=O)Nc3ccc(C)cc3)CCOCC2)cc1	–	inconclusive [inhibitor, single point]
OCCN1CCN(C2Cc3cc(Cl)ccc3Sc3ccc(Cl)cc32)CC1 (stereo unspecified) (tested in a mixture with another compound)	–	inconclusive [inhibitor, single point]
O=S(=O)(c1ccc(S(=O)(=O)N(Cc2ccco2)Cc2ccccc2Cl)cc1)N1CCCC1	–	inconclusive [inhibitor, full curve]
COc1ccc(-n2c(=S)[nH]c3sc(-c4ccccc4)cc3c2=O)c(OC)c1	inactive: 15.9%	–
Cc1ccc(NC(=O)CSc2nc3ccccc3c(=O)n2CCCN2CCCCC2)cc1Cl	inactive: -15.1%	–
O=C(COC(=O)c1ccccc1NCc1ccco1)Nc1ccc2c(c1)OCO2	inactive: 38.8%	–
CCN1C(=O)[C@H]2[C@@H](c3ccc(C)cc3)N3C(=O)N(c4ccccc4)C(=O)[C@@]3(Cc3ccc(Cl)cc3)[C@H]2C1=O	–	inconclusive [inhibitor, partial curve]
COc1cccc2c(C)cc(N3CCCCCC3)nc12	–	inconclusive [inhibitor, single point]
CCOC(=O)C1(Cc2ccccc2)CCCN(Cc2ccc(OCCO)cc2)C1 (stereo unspecified)	–	inconclusive [inhibitor, partial curve]
CCN1CCCC1CN(Cc1cc2c(C)cc(C)cc2[nH]c1=O)C(=O)NC1CCCCC1 (stereo unspecified)	–	active: 9.28 µM
Cc1cccc(S(=O)(=O)NNC(=O)c2cc(-c3ccc(F)cc3)nc3ccccc23)c1	–	inconclusive [inhibitor, partial curve, poor fit]
CCOC(=O)C1=C(C)C(c2ccccc2OC)NC(=S)N1 (stereo unspecified)	–	inconclusive [inhibitor, single point]
COc1ccc(NC(=O)c2ccc3[nH]c(C)c(C)c3c2)c(OC)c1	inactive: -15.9%	–
COc1ccc2cc(C3CC(c4ccco4)=NN3S(=O)(=O)c3ccccc3)c(Cl)nc2c1 (stereo unspecified)	–	inconclusive [inhibitor, single point]
N#Cc1ncc(-c2ccc3c(c2)OCCOCCOCCOCCO3)nc1C#N	–	inconclusive [inhibitor, single point]
COc1ccc(NC(=O)CN2CC=C(c3ccccc3)CC2)cc1S(=O)(=O)N1CCOCC1	–	inconclusive [inhibitor, partial curve, poor fit]
CN(C)C(CNC(=O)/C=C/c1cccc(Cl)c1)c1ccccc1 (stereo unspecified)	inactive: -25.6%	–
O=C(CCCN1C(=O)/C(=C/c2ccccc2)SC1=S)N1CCOCC1	–	inconclusive [inhibitor, partial curve]
CN(C)C(=O)c1nc2ccc(Cl)cn2c1CNCc1cccc(OC(F)(F)F)c1	–	inconclusive [inhibitor, partial curve, poor fit]

Structure (SMILES)	activity change, negative = inhibition	Potency
COC(=O)c1[nH]c2ccccc2c1NC(=O)CN1CCN(c2cccc(OC)c2)C(C)C1 (stereo unspecified)	–	active: 9.28 µM
CC1CN(C(=S)Nc2ccc(Br)cc2Cl)CC(C)O1 (stereo unspecified)	inactive: 9.95%	–
O=C(NCCC1=CCCCC1)C1CCN(S(=O)(=O)c2ccc(-n3cnnn3)cc2)CC1	–	inconclusive [inhibitor, single point]
COc1ccc(-c2nc(CCNC(=O)c3ccc(Br)o3)cs2)cc1	–	inconclusive [inhibitor, single point]
c1cncc(-c2nc(N3CCOCC3)c3ccccc3n2)c1	–	inconclusive [inhibitor, single point]
CCOC(=O)N1CCC(O)(c2cc(C)c(C)cc2C)CC1	–	inconclusive [inhibitor, single point]
c1ccc2[nH]c(CSc3nc4ccccc4s3)nc2c1	–	inconclusive [inhibitor, full curve, poor fit]
O=C(NC1CCCCC1)C(c1ccc(F)cc1)N(Cc1ccco1)C(=O)c1ccccn1 (stereo unspecified)	–	inconclusive [inhibitor, full curve, poor fit]
CN(C)C(=O)c1cc([N+](=O)[O-])ccc1O	–	inconclusive [inhibitor, full curve, poor fit]
CC1(c2ccc3ccccc3c2)NC(=O)N(CC(=O)N2CCN(S(=O)(=O)c3ccccc3F)CC2)C1=O (stereo unspecified)	–	inconclusive [inhibitor, full curve, poor fit]
COc1ccc(CN2CCC(=O)N([C@H](CO)CC(C)C)CC2)cc1OC	inactive: 29.6%	–
COc1ccc(C(=O)N=C2SC3CS(=O)(=O)CC3N2c2ccc(C(C)=O)cc2)cc1 (stereo unspecified)	inactive: 4.93%	–
CCS(=O)(=O)C1=NSC2=NC(=O)/C(=C\c3cc(C)n(-c4cccc(OC)c4)c3C)C(=N)N21	–	inconclusive [inhibitor, full curve, poor fit]
CC(C)CNc1nc(N)c([N+](=O)[O-])c(N2CCCCCC2)n1	–	inconclusive [inhibitor, partial curve, poor fit]
OC(CNCCc1ccccc1)c1ccccc1 (stereo unspecified)	–	active: 5.86 µM
COC(=O)C1=C(C)N(Cc2ccccc2)C(=NCc2cccc(Cl)c2)N[C@H]1c1cccc(F)c1	–	active: 8.28 µM
COc1ccc(S(=O)(=O)NCCOc2ccc(Cl)cc2)cc1	inactive: -7.17%	–
COc1cccc(N2C(=NC(=O)CCC3CCCC3)SC3CS(=O)(=O)CC32)c1 (stereo unspecified)	inactive: 2.9%	–
O=C(N/N=C/c1c(F)cccc1Cl)c1ccc(Cn2cc(Br)cn2)o1	–	inconclusive [inhibitor, single point]
Cc1noc(N)c1C(=O)Nc1ccc(F)c(Cl)c1	–	active: 2.33 µM
O=C(c1ccccn1)N1CCCC(N2CCN(c3ccccc3)CC2)C1 (stereo unspecified)	inactive: 9.69%	–
CCOC(=O)c1nnn(-c2nonc2N)c1-c1ccccc1Cl	–	inconclusive [inhibitor, partial curve]

Structure (SMILES)	activity change, negative = inhibition	Potency
Cc1ccc(C(=O)CN2C(=O)c3ccccc3S2(=O)=O)cc1	–	active: 3.7 µM
C[C@@]12C(=O)Nc3cc(Cl)ccc3C(=O)N1[C@H]1c3ccccc3OC[C@@H]1[C@@H]2c1ccccc1	–	inconclusive [inhibitor, single point]
CC(=O)Nc1ccc(CN2CCCC(CO)(Cc3ccccc3C)C2)cc1 (stereo unspecified)	–	inconclusive [inhibitor, single point]
Cc1ccc2c(c1)N(CC(=O)N(Cc1ccccn1)Cc1ccco1)C(=O)C(C(C)C)O2 (stereo unspecified)	–	inconclusive [inhibitor, partial curve, poor fit]
CC1CN(C(=O)c2cc([N+](=O)[O-])cc([N+](=O)[O-])c2)CC(C)O1 (stereo unspecified)	inactive: 123%	–
O=C(Nc1ccc(Cl)cc1)c1sccc1-n1cccc1	–	inconclusive [inhibitor, full curve, poor fit]
CCN(CC)C(=O)COc1cccc2ccccc12	inactive: 27.6%	–
O=C(CN(Cc1ccccc1Cl)C(=O)c1ccc(CN2CCOCC2)o1)NCc1ccccc1	inactive: -14.4%	–
CCCn1c(SCC(=O)Nc2cc(Cl)ccc2Cl)n[nH]c1=O	–	inconclusive [inhibitor, full curve]
CCN(CC)S(=O)(=O)c1cc(NC(=O)Cc2ccsc2)ccc1C	–	inconclusive [inhibitor, partial curve]
COC(=O)c1ccc2c(c1)S(=O)(=O)NC(=NCCCN1CCOCC1)S2	–	inconclusive [inhibitor, single point]
O=C1Nc2ccccc2N=C(c2ccccc2)c2ccccc21	–	inconclusive [inhibitor, full curve, poor fit]
CN(C)S(=O)(=O)c1ccc(F)c(C(=O)Nc2ccccc2C(=O)NC2CC2)c1	–	inconclusive [inhibitor, single point]
O=C(Cn1nc2ccccc2n1)N/N=C/c1cc([N+](=O)[O-])ccc1O	–	active: 4.65 µM
CC(C)CC1(C(=O)NCCc2c[nH]c3ccccc23)C=CCN1C(=O)c1ccccc1 (stereo unspecified)	–	inconclusive [inhibitor, single point]
NC(=O)c1ccsc1NC(=O)CSc1nnc(Nc2ccccc2)s1	–	inconclusive [inhibitor, partial curve, poor fit]
COC(=O)c1c(-c2ccc3ccccc3c2)csc1NC(=O)Cc1ccc(OC)c(OC)c1	–	active: 8.28 µM
Cc1onc(-c2ccccc2)c1C(=O)N1CCN(S(=O)(=O)c2ccc3c(c2)OCCO3)CC1	–	inconclusive [inhibitor, partial curve, poor fit]
CCN(CC)C(=O)Cn1cc(C(=O)C(=O)N2CC=C(c3ccccc3)CC2)c2ccccc21	–	inconclusive [inhibitor, single point]
Cc1cc(=O)n2c(nc3ccccc32)[nH]1	–	inconclusive [inhibitor, partial curve, poor fit]
CC(C)CC(CC(C)C)=NNC(=O)c1ccc(CSc2nncn2C)cc1	–	inconclusive [inhibitor, single point]
COc1ccc(COC(=O)C2=C(C)NC(=O)NC2c2ccc(OC)c(OC)c2)cc1 (stereo unspecified)	–	inconclusive [inhibitor, single point]
